This is an account of results in the supplement of paper PMC11417369.

± gives the standard deviation of the averaged measurements. The list shows a part of the results.

The subject of this assay is PfAP2-LT AP2 domain (GST-tagged). Description: gcPBM binding intensity (ln(normalized median fluorescence intensity)); higher = stronger DNA binding. The method, boiled down: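 Binding of GST-tagged P. falciparum DNA-binding domains, expressed in E. coli and used at about 25 μg on average, was carried out for 1 h in 1× PBS containing 1% milk, 0.2 mg/ml BSA, 0.5% salmon testes DNA and 0.03% Triton X-100. The target was an Agilent 4 × 180k array of primer-extended double-stranded 36-bp intergenic genomic probes plus negative controls, read with Alexa488 anti-GST antibody at 488 nm. Binding intensity is the highest Masliner-normalised natural-log median intensity across replicate spots of either probe orientation.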
On to “ATTGTTCTATGATTTGTACACACTTTTTTTTAAAAT [CACACA_site2825]”, for which the “gcPBM binding intensity (ln)” value is 9.06 ± 0.4.
With “ATATATATTTTTTAATGTACTTATATTTTTATAATA [XGTACX_site2103]”, the “gcPBM binding intensity (ln)” value is 8.64 ± 0.31.
To “ATACAATAAAGGTGTACACATATATGATGCAAGATG [CACACA_site5897]” belongs 9.29 ± 0.52.
Take “AGCAATTGTGTTTTCACACATAAATATATTCCTCAC [CACACA_site5021]”: the “gcPBM binding intensity (ln)” value amounted to 8.96 ± 0.42.
For “AATTAAACTCACACCACACACAAAAAAAAAAAAAAA [CACACA_site693]”, the “gcPBM binding intensity (ln)” value is 9.31 ± 0.4.
As for “GGTCATATTTTTTGCACACAAAAAAAAATATAAAAT [CACACA_site3381]”, the “gcPBM binding intensity (ln)” value came out at 9.13 ± 0.42.
Consider “ATATATATATATATATGTACACATATATGTGTTTGT [XGTACX_site62]”, for which the “gcPBM binding intensity (ln)” value worked out at 10.1.
Regarding “TTAATAAACCTTAGATGTACAGTTATATATAAAATA [XGTACX_site6681]”, the “gcPBM binding intensity (ln)” value came to 8.54 ± 0.41.
Take “TGAACTCACGAGCACACACACACATATATATATATA [CACACA_site8248]”: the “gcPBM binding intensity (ln)” value is 10.3 ± 0.25.
The result for “AGTGTAGGTATATAAACACACATACAGATATATAAT [CACACA_site4900]” reads 9.34 ± 0.52; that for “GTATGTATGTATGTATGTACTTATGTAGTCTTAGTT [XGTACX_site1710]”, 9.35 ± 0.32; that for “TATTCAGGTCCAATGGTGCAATATATTTTTGTAATA [GTGCAC_site9607]”, 8.7 ± 0.29.
The result for “TAAAAAATAAAATGGACACACACGTTCAAATTTAGA [CACACA_site2083]” reads 9.05 ± 0.42; that for “AATTATAATTAATAGAGTACTGAATATATATATATA [XGTACX_site8683]”, 8.99 ± 0.26; that for “TTCCCTTTTTTTATTTGTACTTATCTTTTAAATAAT [XGTACX_site2497]”, 8.82 ± 0.54.
With “AGCATTTTTCATTTTGCACACATGTTTTATGTGTAT [CACACA_site3454]”, the “gcPBM binding intensity (ln)” value is 9.48 ± 0.24.
Regarding “TAAAATATAATAAAATGTACACGCATGCAATAGAAT [XGTACX_site7434]”, the “gcPBM binding intensity (ln)” value was 9.41 ± 0.35.
Regarding “GCTTCTTAGTATACTTTATAAAATATATATTAAATA [XGTACX_negctrl_site57]”, the “gcPBM binding intensity (ln)” value is 8.39 ± 0.35.
The result for “ATATCGGGTGCATTAACACACATTTATTTGAATAAA [CACACA_site2350]” reads 8.89 ± 0.47; that for “ATATTAAATATAATTTGTACGCATTTTTTTTTTTTT [XGTACX_site1910]”, 8.69 ± 0.49.
As to “ATATATCATAATAGAGGTACACATATTATATATATA [XGTACX_site782]”, the “gcPBM binding intensity (ln)” value is 8.85 ± 0.48.
With “TTTATAAATATATATACACACACATATATATTATAT [CACACA_site8099]”, the “gcPBM binding intensity (ln)” value was determined as 9.18 ± 0.4.
For the sequence “ATATACATATATATGGGTACATATATTAATATATAT [XGTACX_site8358]”, the “gcPBM binding intensity (ln)” value worked out at 8.87 ± 0.48.
As to “TCTGTTAATATTTATACACACATATTTATTTATATA [CACACA_site6658]”, the “gcPBM binding intensity (ln)” value came to 8.94 ± 0.44.
Consider “TTAACATATTATAAGTGTACATATTTATAAACAAGA [XGTACX_site8806]”, for which the “gcPBM binding intensity (ln)” value was found to be 8.71 ± 0.39.
As to “ATTTTGAAAAATAAAAGTACATATAATATATCTACA [XGTACX_site7185]”, the “gcPBM binding intensity (ln)” value stood at 8.37 ± 0.45.
On to “TTTAGATATATGGTAGTGCATAATAAAAATATAGCC [GTGCAC_site9449]”, for which the “gcPBM binding intensity (ln)” value was 8.68 ± 0.42.
Turning to “CACTCCATATTATACACACACACAAATGAAAAAAAT [CACACA_site3019]”, the “gcPBM binding intensity (ln)” value stood at 9.73 ± 0.33.
In the case of “AATATTACAAAATATTGTCCGTACAAATTTTTAATA [XGTACX_site8129]”, the “gcPBM binding intensity (ln)” value worked out at 8.43 ± 0.42.
In the case of “AAAAAAAAAAAAAAGACACACATATATATATATATA [CACACA_site633]”, the “gcPBM binding intensity (ln)” value is 10.1 ± 0.13.
Consider “GATGATAAAATATGTACACACAGTTTATACATTTTG [CACACA_site4055]”, for which the “gcPBM binding intensity (ln)” value was 9.07 ± 0.51.
Consider “TTTTTTTTTTTAAAATGTACACGTAATTACATATAT [XGTACX_site752]”, for which the “gcPBM binding intensity (ln)” value came out at 8.84 ± 0.49.
Turning to “TGATGGTTACGTTTATGTACACATTACAGTTAGTAT [XGTACX_site998]”, the “gcPBM binding intensity (ln)” value came to 8.99 ± 0.36.
Take “TTAAAAATTATATAAGTGCATTAATATTTAGAACAA [GTGCAC_site9773]”: the “gcPBM binding intensity (ln)” value came out at 8.39 ± 0.41.
Take “ACTACATTATTGCATTGTACTTTTTTTTTTTTTTTA [XGTACX_site4605]”: the “gcPBM binding intensity (ln)” value turned out to be 9.03 ± 0.47.
“GAGTTAATATTTAAAAGTACAAGATGAATGTAAAAA [XGTACX_site5810]”: the “gcPBM binding intensity (ln)” value was 8.79 ± 0.6.
For the sequence “AAAATATATTAAGGCACACACATACATATATATATA [CACACA_site3723]”, the “gcPBM binding intensity (ln)” value was determined as 9.65 ± 0.27.
“TATATTGAATGCAAAAGTACATTTGTGTAAATTTAT [XGTACX_site7611]”: the “gcPBM binding intensity (ln)” value was 8.75 ± 0.41.
Take “TTTAAATTATGAAATTGTACATATAAAAATATTTTA [XGTACX_site4796]”: the “gcPBM binding intensity (ln)” value is 8.13 ± 0.42.
For “TTTTTTTTATTAGTGTGTACGCATTTATTTATACAT [XGTACX_site1599]”, the “gcPBM binding intensity (ln)” value turned out to be 9.2 ± 0.49.
Take “TATATATTATTTAAAACACACAAAAAAAAAAATTAT [CACACA_site89]”: the “gcPBM binding intensity (ln)” value was 8.67 ± 0.45.
As to “TACTTACCAAAATACACACACACACCCAATATATAA [CACACA_site1871]”, the “gcPBM binding intensity (ln)” value was 10.1 ± 0.12.
For “TTAAAAATATATGAATGTACATATATTTATATATAT [XGTACX_site77]”, the “gcPBM binding intensity (ln)” value stood at 8.53 ± 0.35.
The result for “TACAGGAATATTTTTACACACTAAAAATTATAAAAT [CACACA_site1649]” reads 8.71 ± 0.46.
“TGATTGAGTAAAATGGGTACATATACACTATTACAT [XGTACX_site5232]”: the “gcPBM binding intensity (ln)” value came out at 8.78 ± 0.5.
